Where “and” joins values, the source holds several entries; their conditions need not be identical. Identical values can stand only once. The whole screen tested about 390,000 compounds, of which about 4,000 (1%) were called active. Inconclusive means that the source gave no clear call. Such entries were picked first, then a sample of the others. The call rests on the fitted dose curve; in most records, active means well fitted inhibition curve with a large enough effect; inconclusive means small, poorly fitted or top-dose-only effect; inactive means no such curve, though single readings can be large or run the other way. Potencies beside an inconclusive call are fits to weak or partial responses and may not hold up.
target: Thioredoxin reductase 1, cytoplasmic (Rattus norvegicus) (UniProt O89049); assay: qHTS Assay for Inhibitors of Mammalian Selenoprotein Thioredoxin Reductase 1 (TrxR1): qHTS; details: recombinant rTrxR1, NADPH fluorescence consumption, selenite substrate; series mostly up to 114 µM; further: nearly all actives have a fitted effect of over 65% in size
UniProt O89049, sequence (O89049 whole entry, looked up): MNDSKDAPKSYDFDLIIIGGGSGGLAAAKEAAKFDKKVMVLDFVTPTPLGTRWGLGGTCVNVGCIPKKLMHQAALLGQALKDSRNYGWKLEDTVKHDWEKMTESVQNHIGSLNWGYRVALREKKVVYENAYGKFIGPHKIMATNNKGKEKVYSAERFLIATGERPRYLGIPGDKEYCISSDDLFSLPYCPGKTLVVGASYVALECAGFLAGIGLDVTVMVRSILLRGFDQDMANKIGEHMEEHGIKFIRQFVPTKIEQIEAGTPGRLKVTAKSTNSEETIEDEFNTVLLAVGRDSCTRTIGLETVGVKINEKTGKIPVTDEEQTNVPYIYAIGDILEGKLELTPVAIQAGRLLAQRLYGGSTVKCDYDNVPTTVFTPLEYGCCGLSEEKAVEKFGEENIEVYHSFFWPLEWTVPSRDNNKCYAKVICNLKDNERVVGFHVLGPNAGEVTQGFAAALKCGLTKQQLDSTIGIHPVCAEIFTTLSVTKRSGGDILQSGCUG
In short: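 Rat TrxR1 (90 nM in the dispensed reagent) was pre-reduced with 400 uM NADPH for 5 min at room temperature, then incubated with compound for 15 min. After 400 uM selenite was added, NADPH fluorescence (Ex 340/Em 450 nm) was followed for 8 min.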
On the % scale 0 is the no-effect control and ±100 the full control effect; potency means the concentration at half of the fitted maximal effect; tags describe the fitted curve by direction and shape.

SMILES | Potency | activity change, negative = inhibition
O=C(O)/C=C/C(=O)c1ccc2c(c1)CCc1ccccc1-2 | inconclusive: 5.62 µM [inhibitor, partial curve, poor fit] | 
CCOC(=O)c1cc(C(C)(C)C)oc1CNC(=O)c1c(C)oc2c1CCCC2 | inconclusive: 79.4 µM [inhibitor, single point] | 
CC(SCc1nc2sc3c(c2c(=O)[nH]1)CCCC3)C(=O)Nc1ccccn1 (centres undefined) | inconclusive: 70.8 µM [inhibitor, partial curve] | 
CCOCCCn1c(=N)c(C(N)=S)cc2c(=O)n3cccc(C)c3nc21 | inactive | 
O=C(CSc1ccc2c(c1)OCCO2)NCc1ccco1 | inconclusive: 25.1 µM [inhibitor, partial curve] | 
CC1CCCCN1CC(=O)Nc1sc2c(c1C#N)CCC2 (centres undefined) | inconclusive: 50.1 µM [inhibitor, partial curve, poor fit] | 
O=C1CCCC/C1=C\Nc1ccc(O)cc1 | inconclusive: 14.1 µM [inhibitor, full curve] | 
CCN(CC)c1ccc(/C=C(/C#N)C(=O)NC(C)C)o1 | inactive | 
CCN(CC)S(=O)(=O)c1ccc2c(c1)nc(SCC(N)=O)n2-c1ccc(OC)cc1 | inconclusive: 28.2 µM [inhibitor, single point] | 
Cc1nnc(SCC2=C(C(=O)O)N3C(=O)C(NC(=O)Cc4ccccc4)C3SC2)s1 (centres undefined) | inconclusive: 12.6 µM [inhibitor, full curve] | 
Cc1ccc(-n2nc(CO)c(C(=O)NCCCc3ccccc3)n2)cc1 | inactive | 
CC(=O)c1cccc(NC(=O)COC(=O)c2ccc(S(C)(=O)=O)c([N+](=O)[O-])c2)c1 | active: 1.58 µM | 
O=c1c2ccccc2n(Cc2ccccc2F)c(=O)n1-c1cccc(F)c1 | inactive | 
CC(=O)N1c2ccc(S(=O)(=O)N3CCC(C(=O)Nc4cccc(C)n4)CC3)cc2CC1C (centres undefined) | inconclusive: 44.7 µM [inhibitor, partial curve, poor fit] | 
C/C=C1\COC(C(=O)NCc2ccccn2)(C(F)(F)F)C=C1C=C(C)C (centres undefined) | active: 3.98 µM | 
Cn1nnnc1SCC(=O)Nc1ccccc1N1CCOCC1 | inconclusive: 3.16 µM [inhibitor, single point] | 
CC(C)N(CCC(=O)c1ccc2ccccc2c1)Cc1ccccc1 | active: 891 nM and active: 316 nM and active: 3.16 µM | 
O=C1/C(=C/c2ccsc2)N2CCC1CC2 | inconclusive: 15.8 µM [inhibitor, partial curve, poor fit] | 
CCC(=O)NC(=S)NNC(=O)c1ccc([N+](=O)[O-])cc1 | inconclusive: 50.1 µM [inhibitor, partial curve] | 
Cc1csc(SCC(=O)Nc2ccc(S(=O)(=O)N3CCCC3)cc2)n1 | inactive | 
CCn1nc(-c2ccc(C)cc2)nc2c(=O)n(C)c(=O)nc1-2 | inconclusive: 44.7 µM [inhibitor, partial curve, poor fit] | 
Cc1ccccc1-n1c(=O)cc(N2CC(C)OC(C)C2)[nH]c1=O (centres undefined) | inconclusive: 28.2 µM [inhibitor, full curve] | 
O=C(CCCN1C(=O)/C(=C\c2ccccc2)SC1=S)Nc1ccc(C(=O)O)cc1 | inconclusive: 89.1 µM [inhibitor, single point] | 

SMILES | Potency | activity change, negative = inhibition
O=C(CCc1ccccc1)NCc1ccccn1 | inconclusive: 35.5 µM [inhibitor, single point] | 
COC(=O)/C(=C/c1cn(C(C)=O)c2ccccc12)[N+](=O)[O-] | inconclusive: 25.1 µM [inhibitor, single point] | 
Cc1ccc(C(O)(C(=O)NNc2ccc3ccccc3n2)c2ccc(C)cc2)cc1 | inactive | 
O=C(O)c1ccc(NC(=S)NC(=O)c2ccc(-c3ccccc3)cc2)cc1 | inconclusive: 15.8 µM [inhibitor, partial curve, poor fit] | 
O=C1CSC(=S)N1N=C1CCCCCC1 | inconclusive: 70.8 µM [inhibitor, partial curve] | 
CC(=O)c1cccc(NC(=O)c2ccc(Br)o2)c1 | inconclusive: 22.4 µM [inhibitor, partial curve, poor fit] | 
CC(C)c1ccc(NCCC(=O)c2cccs2)cc1 | active: 2.82 µM | 
CCN1C(=O)/C(=C/c2ccc(C)s2)NC1=S | inconclusive: 8.91 µM [inhibitor, partial curve, poor fit] | 
Cc1ccccc1N=Nc1c(O)[nH]c2ccccc12 | inconclusive: 39.8 µM [inhibitor, partial curve, poor fit] | 
COc1ccc(Br)cc1C(=O)Nc1ccc(N2CCN(S(C)(=O)=O)CC2)cc1 |  | inactive: 35% [at 0.457 µM]
Cc1cccc(NC(=S)NCCC(c2ccccc2)c2ccccc2)c1 | inactive | 
CC1(C)CC(=O)C(C(C#Cc2ccccc2)C2=C(O)CC(C)(C)CC2=O)=C(O)C1 | active: 10 µM | 
COCCNC(=O)CSC1=N/C(=C/c2ccc(Cl)c(Cl)c2)C(=O)N1c1ccccc1F | inconclusive: 28.2 µM [inhibitor, single point] | 
O=C(c1ccco1)N1CCN(Cc2cc(=O)oc3cc(O)ccc23)CC1 | inconclusive: 89.1 µM [inhibitor, single point] | 
C[C@@H]1CC=C[C@H]2[C@H]1C(=O)N(Cc1ccccc1)[C@H]2c1ccoc1 | inconclusive: 79.4 µM [inhibitor, partial curve, poor fit] | 
Cc1ccc(N/C=C/C(=O)C(C)(C)C)c(O)c1 | inactive | 
CC(C)N(CCCNC(=O)Cn1c(=O)c2cccn2c2ccccc21)Cc1ccccc1 | inconclusive: 79.4 µM [inhibitor, partial curve] | 
COCCNc1oc(/C=C/c2ccc(F)cc2)nc1C#N | inconclusive: 56.2 µM [inhibitor, partial curve, poor fit] | 
Cc1ccc2cc(CN(C(=O)c3cccc(Cl)c3)c3ccccc3)c(=O)[nH]c2c1 | inactive | 
COc1ccc(OC)c(-c2nc(CN3CCN(C(=O)c4ccco4)CC3)c(C)o2)c1 | inconclusive: 70.8 µM [inhibitor, single point] | 
CCOC(=O)c1c(-c2ccc(C)o2)csc1NC(=O)CN1CCOCC1 | inconclusive: 39.8 µM [inhibitor, single point] | 
Cc1nc2cc(NC(=O)c3ccco3)ccc2n1C | inactive | 
CC(CCc1ccc(O)cc1)NCCc1ccc(O)c(O)c1 (centres undefined) | inconclusive: 14.1 µM [inhibitor, partial curve, poor fit] | 

SMILES | Potency | activity change, negative = inhibition
COC(=O)c1ccc2c(c1)C(C)(C)C(/C=C/c1ccccc1O)=[N+]2C | active: 79.4 µM | 
Cc1cccc(Nc2nnc(SCC(=O)NC(=O)CN3CCCC3=O)s2)c1 | inconclusive: 79.4 µM [inhibitor, single point] | 
O=[N+]([O-])c1ccccc1/C=N/n1c(-c2ccccc2)n[nH]c1=S | inconclusive: 79.4 µM [inhibitor, single point] | 
CC1=C(C#N)C(=O)NC(=O)/C1=C\c1ccc(-c2ccc(C)cc2[N+](=O)[O-])o1 | active: 15.8 µM | 
CCCCn1c(NCc2ccc(N(C)C)cc2)nc2ccccc21 | inactive | 
O=C(CCOc1ccccc1)N(Cc1cccnc1)c1nc2c(F)cccc2s1 | inconclusive: 17.8 µM [inhibitor, partial curve, poor fit] | 
Cc1ccc2nc(-c3ccc(SCC(=O)O)nc3)[nH]c2c1 | inconclusive: 100 µM [inhibitor, single point] | 
Cc1nc(-n2[nH]c3c(c2=O)CCCC3)[nH]c(=O)c1Cc1ccccc1 | inconclusive: 50.1 µM [inhibitor, partial curve, poor fit] | 
CC(C)(C)C(=O)NC(=S)Nc1cc(C(F)(F)F)ccc1N1CCOCC1 | inconclusive: 11.2 µM [inhibitor, full curve] | 
COC1=C/C(=C/c2c(O)c(C#N)c3ccccn23)C=CC1=O | active: 12.6 µM | 
Cc1cccc2nc(-c3cccnc3)c(NCCC(C)C)n12 | inactive | 
COC1=C(Nc2ccc(O)cc2)C(=O)c2ccccc2C1=O | inconclusive: 22.4 µM [inhibitor, partial curve, poor fit] | 
COc1ccc(-c2cc3nc(CCl)[nH]c(=O)c3s2)cc1 | inconclusive: 56.2 µM [inhibitor, partial curve, poor fit] | 
Cc1sc(-n2c(C)cc(/C=C3\SC(=S)NC3=O)c2C)c(C#N)c1C | inconclusive: 8.91 µM [inhibitor, partial curve] | 
CCOC(=O)N1CCN(C(=O)c2ccc3c(c2)NC(=O)/C(=C\c2ccc(OC)c(OC)c2)S3)CC1 | active: 25.1 µM | 
CC(=O)Nc1nc2n(n1)C(c1ccccc1)C=C(c1ccccc1)N2 (centres undefined) | active: 39.8 µM | 
Clc1ccc(-c2ncc3ccccn23)cc1 | inactive | 
O=C(/C=C/c1ccc2c(c1)OCO2)c1ccco1 | inconclusive: 35.5 µM [inhibitor, partial curve] | 
O=C(Nc1ccc(NC(=O)c2cccs2)cc1Cl)c1ccco1 | inconclusive: 5.01 µM [inhibitor, single point] | 
CCC(C(=O)NCc1ccc(C)o1)n1nc(C)c2c(C)n(-c3ccccc3)nc2c1=O (centres undefined) | inconclusive: 89.1 µM [inhibitor, single point] | 
CCOc1ccc(CNC(=O)Cn2cc3c(n2)-c2c(oc(C(=O)N4CCOCC4)c2C)CC3)cc1 | inconclusive: 70.8 µM [inhibitor, single point] | 
CCC1CO/C(=C(\C(Cl)=C(Cl)Cl)[N+](=O)[O-])N1 (centres undefined) | active: 15.8 µM | 
CCC(=Nc1ccc(N)cc1)C1=C(O)C(C(=O)OC)C(C)(C)CC1=O (centres undefined) | inconclusive: 14.1 µM [inhibitor, partial curve] | 
